# Source: patent publication US11773183B2, “MUC16 monoclonal antibody and uses thereof” (QUEST PHARMATECH INC., priority 2018, dated 2023)
# B1: POCmAb: Recombinant anti-MUC16 mAb: VH SEQ ID NO:15 and VL SEQ ID NO:16 with human IgG1 heavy and human kappa constant domains (antibody, V domains shown)
# VH: EVQLVESGGGLVQPGGSRKLSCAASGFTFSTFGMHWVRQAPEKGLEWVAYISSGSSTIYYGDTLQGRFIISRDNPKNTLFLQMTSLRSEDTAMYYCARSGYDYDPIYYALDYWGQGTSVTVSS
# VL: DIVLTQSPASLAVSLGQRATISCRASESVDNYGISFMNWFQQKPGHPPKLLIYGASNQGSGVPARFSGSGSGTDFSLNIHPMEEDDAAMYFCQQTKEVPWTFGGGTKVEIKR
# modifications: human IgG1 and kappa constant domains; Variable heavy domain; Variable light domain
# Tests used:
# MUC16 [1] = target: T1, MUC16 (Homo sapiens, UniProt Q8WXI7); experiment: Binding specificity against T3M4 cells treated with glycosidases
# T1 construct: against human pancreatic cancer cells (T3M4) that are treated with Sialidase, O-glycanase and N-glycanase enzymes; endogenous in cells; host or cells: T3M4
# Procedure: Now referring to FIG. 2. The binding specificity of humanized version of the anti-MUC16 TR1.2A, namely (POCmAb) against various pancreatic cancer cells is tested. […] Next, the binding specificity of murine mAR9.6 and humanized POCmAb anti-MUC16 antibodies against human pancreatic cancer cells (T3M4) that are treated with Sialidase, O-glycanase and N-glycanase enzymes is tested. […] Next, the binding specificity of murine mAR9.6 and humanized POCmAb anti-MUC16 antibodies against MUC16 TR1.2 purified from CHO wild-type cells, which was treated with different glycosidases such as sialidase, O-glycanase and N-glycanase was tested. […] However, O-glycans and sialic acid groups on the MUC16 either blocks or mask the epitopes for anti-MUC16 antibody reactivity.
# MUC16 TR1.2 = target: T2, MUC16 TR1.2 (Homo sapiens, UniProt Q8WXI7); experiment: Binding specificity against MUC16 TR1.2 purified from CHO wild-type cells treated with glycosidases; settings: MUC16 TR1.2 from CHO wild-type cells
# T2 construct: made in house; host or cells: CHO cells (wild type)
# T2 sequence (Q8WXI7 12665-12858): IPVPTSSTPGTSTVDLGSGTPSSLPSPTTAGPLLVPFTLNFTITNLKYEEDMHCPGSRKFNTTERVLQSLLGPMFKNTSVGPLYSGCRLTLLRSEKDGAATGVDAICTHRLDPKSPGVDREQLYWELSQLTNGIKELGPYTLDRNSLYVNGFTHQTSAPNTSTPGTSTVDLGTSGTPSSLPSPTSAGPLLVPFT
# T3M4 wildtype (WT) cells = experiment: Live/Dead cell cytotoxicity assay, T3M4 wildtype cells; format: cell-based, human; settings: 24 h, antibody 5 μg/ml, where combined Sapitinib 5.4 μM, LY294002 11.3 μM
# Procedure: (§1) Materials and Methods. T3M4 wildtype (WT) and COSMC deleted (SimpleCells, SC) were treated with equal amounts of mAR 9.6 (5 μg/ml) and POCmAb (5 μg/ml) or with isotype matched (either mouse or human) control IgG antibody for 24 h. For the comparison of effect of antibodies in inducing cell death, T3M4 WT cells were treated with Sapitinib (an ErbB receptor tyrosine kinase inhibitor, 5.4 μM) and LY294002 (PI3K/Akt inhibitor, 11.3 μM) alone or in combination with mAR9.6 (5 μg/ml) and POCmAb (5 μg/ml) for 24 h. The cells were washed well with cell-culture grade PBS. 20 μl ethidium homodimer-1 (EthD-1, 2 mM) was dissolved in 10 ml PBS. To this solution, 5 μl of calcein acetoxymethyl ester (calcein-AM, 4 mM) was added. 150 μl of this combined reagent was added to the cells grown on coverslip and incubated for 30-45 minutes. The numbers of live and dead cells were detected with Zeiss LSM 710™ confocal laser scanning microscope (Carl Zeiss, Inc., Thornwood, NY, USA) at Confocal Laser Scanning Fluorescence Microscope Core Facility, UNMC. The ratio of dead cells to total cells was calculated for quantitative comparisons. Unpaired Student's t-test was performed to calculate the statistical significance between the antibodies treated T3M4 WT and T3M4 SC cells (n=4) (p<0.05 considered statistically significant). […]
# MUC16 [2] = experiment: Binding specificity against different pancreatic cancer cells; parameters: species or system human; settings: FIG. 2A, compared to mAR9.6 (FIG. 2B)
# [3] = system: T3M4 COSMC deleted (SimpleCells, SC) cells; experiment: Live/Dead cell cytotoxicity assay, COSMC deleted T3M4 SimpleCells; format: cell-based, human; settings: 24 h, antibody 5 μg/ml
# Procedure: as §1
# MUC16 [4] = experiment: Binding specificity to PDAC patients ascites fluid samples; parameters: species or system human; settings: 6/16 samples, FIG. 5A
molecule,measurement,setting,value
B1,"antibody reactivity, samples treated with N-glycanase","MUC16 [1]; lanes 2 and 5, FIGS. 3A and 3B",reduced reactivity
same,"antibody reactivity, samples treated with O-glycanase and sialidase alone or in combination","MUC16 [1]; lanes 3, 4 and 6, FIGS. 3A and 3B",increased reactivity
same,"antibody reactivity, samples treated with N-glycanase","MUC16 TR1.2; lanes 2 and 5, FIG. 4",reduced reactivity
same,"antibody reactivity, samples treated with O-glycanase and sialidase alone or in combination","MUC16 TR1.2; lanes 3, 4 and 6, FIG. 4",increased reactivity
same,cell death (ratio of dead cells to total cells),T3M4 wildtype (WT) cells,about 39%
same,recognition of MUC16 in different pancreatic cancer cells,MUC16 [2],recognizes various isoforms of MUC16
same,cell death (ratio of dead cells to total cells),[3],about 55%
same,PDAC patients ascites fluids in which MUC16 isoforms are recognized,MUC16 [4],37.5%
